Results reported in PubChem BioAssay AID504706 (National Center for Advancing Translational Sciences (NCATS), 2011).
Screen size: about 320,000 compounds; about 200 (0.062%) were called active. Inconclusive means that the source gave no clear call. Such entries were picked first, then a sample of the others. Calls come from the whole dose curve; as a rule, active = well fitted activation curve with a large enough effect; inconclusive = small, poorly fitted or top-dose-only effect; inactive = no such curve, though single readings can be large or run the other way. No potency is given beside an inconclusive call; the fits are too rough.

Test: qHTS assay for re-activators of p53 using a Luc reporter; note: nearly all actives have a fitted effect of over 45% in size; for activity change, positive = activation: % of control where 0% means no effect
Conditions: H1299 p53-A138V BP100-luciferase reporter, luminescence, 24 h; series mostly up to 92.2 µM; activity change, positive = activation: at the top concentration
Procedure, shortened: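 p53-null H1299 cells stably carrying temperature-sensitive p53-A138V and a BP100-luciferase reporter were pinned with compounds (4-point, 1:5 series) and held 24 hrs at 37 deg C. Luminescence was read 10 min after detection reagent.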
Potency is the fitted concentration of half-maximal effect; tags give direction and shape of the fitted curve.

Row | Structure (SMILES) | Potency | activity change, positive = activation
1 | O=C(Nc1ccc2nc3n(c(=O)c2c1)CCCCC3)c1ccccc1[N+](=O)[O-] | inconclusive [activator, partial curve, poor fit] | 
2 | COC(=O)c1ccc(OCC(=O)c2cccc(OC)c2)cc1 | inconclusive [activator, partial curve, poor fit] | 
3 | Cc1ccc(N(C)C(=O)c2ccc(CNc3c(N4CCC(C)CC4)c(=O)c3=O)cc2)cc1 |  | inactive: -2.98%
4 | CSc1ccccc1OCc1cc(C(=O)N2CCCC(C)C2)no1 (centres undefined) | inconclusive [activator, full curve, poor fit] | 
5 | CNc1nnc(SCC(=O)c2cc(C)n(C3CC3)c2C)s1 | inconclusive [activator, full curve, poor fit] | 
6 | COc1ccc(/C=C(\NC(=O)c2ccccc2)C(=O)N2CCCCC2)cc1OC | inconclusive [activator, single point] | 
7 | O=C(Nc1ccsc1C(=O)NC1CCCCC1)c1ccccc1 | inconclusive [activator, full curve, poor fit] | 
8 | CSc1nnc2c(n1)c(C)nn2-c1cccc(C)c1 | inconclusive [activator, single point] | 
9 | COc1ccc(Br)cc1[C@H]1[C@@H]2C=CCC[C@@]2(C)C(=O)N1Cc1ccccc1 |  | inactive: -1.3%
10 | Cc1ccc(OCc2ccc(C(=O)N3CCOCC3)cc2)cc1C | inconclusive [activator, full curve, poor fit] | 
11 | CC(=O)Nc1ccc(Nc2nc(-c3sc(C)nc3C)cs2)cc1 |  | inactive: -34.9%
12 | CC(CC(=O)O)CC(=O)Nc1cc([N+](=O)[O-])ccc1O (centres undefined) |  | inactive: 0.519%
13 | O=C(NCc1cn2ccsc2n1)c1c(F)cccc1Cl | inconclusive [activator, single point] | 
14 | COc1ccc(Cn2c(-c3ccco3)nc3oc4cc(OC)ccc4c(=O)c3c2=O)cc1 | inconclusive [activator, single point] | 
15 | Cc1cccc(NC(=O)CSc2nnc(-c3ccccc3)n2N)c1 |  | inactive: 1.1%
16 | CCc1ccc(NS(=O)(=O)c2ccc3[nH]cc(C(=O)N4CCc5ccccc54)c(=O)c3c2)cc1 | inconclusive [activator, full curve, poor fit] | 
17 | O=c1oc2ccccc2n1CSc1nc2ccccc2s1 | inconclusive [activator, full curve, poor fit] | 
18 | COC(CNC(=O)c1cccc2c1C(=O)N(Cc1cccnc1)C2)OC |  | inactive: 0.948%
19 | CC(C)(C)c1cc(CN2CCN(CCC#N)CC2)cc(C(C)(C)C)c1O | inconclusive [activator, partial curve, poor fit] | 
20 | O=C(NNC(=S)Nc1ccc(Br)cc1Cl)c1ccco1 | inconclusive [activator, partial curve, poor fit] | 
21 | O=C(O)c1cccc(N/N=C/c2sc(N3CCOCC3)nc2-c2ccccc2)c1 | inconclusive [activator, full curve, poor fit] | 
22 | CSc1nnc(NC(=O)c2ccc3c(c2)OCO3)s1 | inconclusive [activator, full curve, poor fit] | 

Row | Structure (SMILES) | Potency | activity change, positive = activation
23 | Cc1ccc(OCC(=O)NCc2n[nH]c(=O)c3ccccc23)cc1 |  | inactive: -2.87%
24 | CC(C)OC(=O)CSc1nnc(-c2ccccn2)n1C | inconclusive [activator, full curve] | 
25 | CCc1ccc(S(=O)(=O)/N=C2\C=C(NS(=O)(=O)c3ccccc3)C(=O)c3ccccc32)cc1 | inconclusive [activator, single point] | 
26 | O=C(Nc1cccc([N+](=O)[O-])c1)N1CCc2ccccc2C1 | inconclusive [activator, full curve, poor fit] | 
27 | Nn1c(-c2cccs2)nc2sc3c(c2c1=O)CCCC3 | inconclusive [activator, full curve, poor fit] | 
28 | CSc1cccc(NC(=S)N(CCCN2CCCC2)Cc2cccn2Cc2ccc(Cl)cc2)c1 |  | inactive: 14.3%
29 | Cc1ncc(CN2CCCC(C(=O)Nc3ccc(-c4cscn4)cc3)C2)cn1 (centres undefined) |  | inactive: -9.43%
30 | c1ccc(SCCOCCN2CCOCC2)cc1 | inconclusive [activator, single point] | 
31 | COc1cc(Cl)ccc1OCc1cc(C(=O)N2CCCCCCC2)no1 |  | inactive: 4.89%
32 | Cc1ccc(S(=O)(=O)N/N=C\c2ccc([N+](=O)[O-])o2)cc1 | inconclusive [activator, single point] | 
33 | N#Cc1c(NC(=S)NC(=O)c2ccccc2)sc2c1CCC2 | inconclusive [activator, partial curve, poor fit] | 
34 | O=C(Nc1ccccc1C(F)(F)F)c1cc(-c2ccccc2O)on1 | inconclusive [activator, partial curve, poor fit] | 
35 | CS(=O)(=O)c1ccc(C(=O)Nc2ccc(N3CCCCC3)cc2)c(Cl)c1 |  | inactive: -1.45%
36 | CC1CCC/C(=N\Nc2ccc(Cl)c(C(=O)O)c2)C1 (centres undefined) | inconclusive [activator, partial curve, poor fit] | 
37 | Cc1ccc(NC(=O)/C(=C\c2cccc([N+](=O)[O-])c2)NC(=O)c2cccs2)cc1 |  | inactive: 3.66%
38 | O=C(NC(=S)Nc1ccc2oc(=O)ccc2c1)c1cccc(Cl)c1 |  | inactive: 8.76%
39 | O=C(N/N=C/c1ccc(OC(=O)c2cccs2)cc1)c1ccc(F)cc1 | inconclusive [activator, single point] | 
40 | S=c1[nH]nc(-c2cccnc2)n1/N=C/C=C/c1ccco1 |  | inactive: 2.87%
41 | COc1ccc(-c2cc(C(=O)N3CCCCC3)no2)cc1OC | inconclusive [activator, partial curve, poor fit] | 
42 | O=C(Cc1ccccc1F)Nc1ccc(S(=O)(=O)N2CCCCC2)cc1 |  | inactive: -22.3%
43 | CC(C)Sc1nc(SCC(=O)NCc2ccco2)c2c3c(sc2n1)COC(C)(C)C3 | inconclusive [activator, partial curve, poor fit] | 
44 | COc1ccccc1C(=O)COC(=O)CN1C(=O)c2ccccc2C1=O |  | inactive: -7.57%
